Data published in article PMC5995542 (2018).

Tests used:
[1] = target: RF2-Cy5 (release factor RF2, single-cysteine variant RF2(C273) labelled with Cy5) (E. coli K12, UniProt P07012 1-365, T246A, Cy5 (maleimide) on the single cysteine C273; methylated in vitro (residue not given)); assay: FRET; PostHC
[2] = target: T1, RF3-Cy5 (release factor RF3, single-cysteine variant RF3(L233C) labelled with Cy5) (E. coli, UniProt P0A7I4, L233C, Cy5 on the single cysteine C233); assay: FRET; PostHC*, GDPNP, without RF1
[3] = target: T1, RF3-Cy5 (release factor RF3, …); assay: FRET; PostHC, GDPNP, saturating RF1 (1 uM)
[4] = target: RF2(GAQ)-Cy5 (catalytically impaired RF2(G251A), Cy5-labelled) (E. coli K12, UniProt P07012 1-365, T246A | G251A, Cy5 (maleimide) on the single cysteine; methylated in vitro (residue not given)); assay: FRET; PostHC* (peptide released by puromycin)

B1: E. coli 70S ribosome termination complex labelled with Cy3 at protein L11 (PreHC, PostHC* or PostHC) (complex)
chain: not shown
modifications: Cy3 (position not given)
koff [1]: 0.8 s⁻¹
koff [2]: 0.3 s⁻¹
koff [3]: 2.5 s⁻¹
koff [4]: 0.8 s⁻¹
